# Measurements: the BET-seq Pho4 binding data (Le et al. 2018)
# The list shows a part of the results. These are noisy estimates, calculated here from bound and input reads.
# Molecular target: T1, Pho4 (S. cerevisiae) (UniProt P07270)
# T1 sequence: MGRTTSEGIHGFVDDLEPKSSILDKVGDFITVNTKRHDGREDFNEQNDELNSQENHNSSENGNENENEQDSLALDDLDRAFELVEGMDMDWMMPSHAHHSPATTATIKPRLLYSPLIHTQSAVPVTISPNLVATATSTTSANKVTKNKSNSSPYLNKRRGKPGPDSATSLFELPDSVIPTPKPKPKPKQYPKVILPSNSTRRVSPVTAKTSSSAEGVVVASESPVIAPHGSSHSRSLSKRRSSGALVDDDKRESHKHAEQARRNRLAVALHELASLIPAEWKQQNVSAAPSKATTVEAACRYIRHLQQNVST
# Assay: relative binding free energy (BET-seq); higher = weaker binding
# Settings: reference: library average
row,Sequence,relative binding free energy [kcal/mol]
1,TTAGGCACGTGAAGCG,0.2
2,ATCAACACGTGGGTTT,0.02
3,TATTACACGTGGGATT,-0.04
4,TTATGCACGTGAACGG,0.22
5,AGGTGCACGTGGCATT,-0.24
6,TGGAACACGTGTAGCG,0.07
7,TTGTTCACGTGCTTTA,0.24
8,TTACACACGTGTGTTT,0.01
9,GACTACACGTGAGGGT,0.35
10,TGTTGCACGTGAACTG,0.22
11,TGGCGCACGTGGGGAA,-0.33
12,GCAATCACGTGGTTTT,0.24
13,CGGGTCACGTGTCGGT,0.15
14,TTTATCACGTGTGAAG,0.12
15,CGTCGCACGTGGTTGG,-0.19
16,TAGTGCACGTGCGGGA,0.03
17,TAGTTCACGTGCTTTT,0.32
18,ATAGGCACGTGTGTTT,0.07
19,TTGGTCACGTGCGGGC,0.13
20,ATTGTCACGTGGTCAT,0
21,ACATGCACGTGATGGG,0.08
22,GTTTTCACGTGAGTAC,0.45
23,TTAGTCACGTGCAGGC,0.1

row,Sequence,relative binding free energy [kcal/mol]
1,GAATTCACGTGTGTAA,0.21
2,TTCGGCACGTGTTGTG,-0.15
3,AGTCTCACGTGGTGGG,0.22
4,TGTGACACGTGGACGT,-0.14
5,ATCATCACGTGGAAGT,0.3
6,ATTCGCACGTGAGTGT,0.02
7,TCAGCCACGTGTGAGG,0.14
8,ACAGACACGTGTGGGG,-0.04
9,TAGTGCACGTGGGACG,-0.1
10,ATGTCCACGTGTGTAG,0.05
11,ATTCGCACGTGTGATA,0.02
12,TGGTGCACGTGCGCAT,-0.16
13,AGTGGCACGTGAGGGG,0.13
14,TTGTTCACGTGCGCTA,0.18
15,GGGTGCACGTGCTGGA,-0.07
16,TTGGACACGTGTGATG,0.12
17,TGGTACACGTGCAGGT,0.2
18,TTTGGCACGTGATTGT,0.04
19,GATGGCACGTGGAGAT,0.09
20,TGTTTCACGTGGAGCT,0.3
21,TAAATCACGTGAGTGG,0.36
22,GGGGGCACGTGCTTGG,-0.1
23,GTTGACACGTGACTTG,0.13

row,Sequence,relative binding free energy [kcal/mol]
1,GTTCTCACGTGCTAGG,0.35
2,GTTTACACGTGACTTA,0.43
3,TTTAGCACGTGTGGTC,0.07
4,CGATGCACGTGGATGG,-0.03
5,CGCGGCACGTGGGAGG,-0.34
6,TATCGCACGTGGTGGC,-0.07
7,ATTCTCACGTGAGCGT,0.34
8,GTGGTCACGTGTATTT,0.23
9,GTTATCACGTGGTCTA,0.08
10,GGGTTCACGTGCAGCG,0.31
11,CTGTTCACGTGCGGTG,0.2
12,GAAGACACGTGGGTGT,-0.01
13,ACGTGCACGTGGCGGT,-0.12
14,GTAGTCACGTGGCATG,0.16
15,TAGATCACGTGGGATA,0.26
16,CGTAACACGTGGGAGG,-0.12
17,GAGTACACGTGGAGTG,0.05
18,AGTGTCACGTGGCTTT,0
19,TTGGCCACGTGTAAGT,0.13
20,GGTAACACGTGGTGAT,0.01
21,TTGTTCACGTGACATG,0.29
22,TGGGACACGTGGCAGT,-0.02
23,ATTGACACGTGGAATG,0.15

row,Sequence,relative binding free energy [kcal/mol]
1,TGGATCACGTGTTCTT,0.07
2,TTCATCACGTGGGGTA,-0.03
3,GATCTCACGTGTGGGC,0.24
4,TTTTTCACGTGCTGTG,0.17
5,TGTGTCACGTGGTCCA,0.07
6,CGTTGCACGTGGCGGG,-0.12
7,TCTGTCACGTGGCATT,0.06
8,AAAGTCACGTGTCTTT,0.09
9,CGTTACACGTGGTTTT,0
10,GACATCACGTGGTTGG,0.29
11,TTCCGCACGTGGTTTT,-0.01
12,AGAGTCACGTGCTGGC,0.22
13,GTGTCCACGTGGGGCT,-0.06
14,AGTATCACGTGATGCA,0.44
15,GCTGTCACGTGATTGG,0.27
16,CTGCGCACGTGTGAGT,-0.11
17,GGTTGCACGTGCACGG,0.07
18,GATGTCACGTGGCAAG,0.2
19,TGGAGCACGTGGAGAG,-0.12
20,TATGTCACGTGTTGGA,0.18
21,TCCTGCACGTGGAGGT,-0.07
22,GTGCACACGTGTTGGT,0.11
23,ATGGGCACGTGCTTAG,-0.11

row,Sequence,relative binding free energy [kcal/mol]
1,AGGGCCACGTGCGGTA,-0.19
2,GGAGGCACGTGGGGGA,-0.16
3,TTGGACACGTGGTATG,0.05
4,TGTATCACGTGCTTGG,0.08
5,GCTTGCACGTGTGAAG,0.09
6,GTATGCACGTGGAAGG,0.07
7,GATTGCACGTGGGGAA,-0.09
8,GGGAGCACGTGGAAGC,-0.05
9,GAGGTCACGTGTGGGT,0.26
10,TAGTGCACGTGGGAGG,-0.06
11,ATACTCACGTGTGGTC,0.3
12,GGGTGCACGTGGACAT,-0.1
13,AGTGTCACGTGGCTAG,0
14,TAATACACGTGTCTTT,0.18
15,GAGTTCACGTGAATGT,0.47
16,GTGTTCACGTGAAAGC,0.4
17,TATATCACGTGTCGTA,0.05
18,TAGAGCACGTGTGTCG,-0.19
19,GTTCACACGTGATTTT,0.28
20,TATCTCACGTGTAGAG,0.27
21,AGCAACACGTGGGTGT,-0.04
22,AGGAGCACGTGATATG,0.02
23,CGGGGCACGTGTGCTA,-0.05
